Reference: patent US20240239885A1, “ANTIBODY CONJUGATE COMPRISING ANTI-P-CADHERIN ANTIBODY AND USES THEREOF” (WUXI BIOLOGICS IRELAND LIMITED, priority 2021, published 2024)

What was measured:
[1] = target: T1, P-cadherin expressed on HCT-116 cells (Homo sapiens, UniProt P22223); test: Target binding (FACS) on HCT-116 cells
T1 construct: endogenous in cells; host or cells: HCT-116
Experimental: Binding of the ADCs to P-cadherin expressed on HCT-116 cells was determined by flow cytometry analysis using the same procedure as described above. In brief, HCT-116 or NCI-H1650 cells were harvested with Versene (Invitrogen, #15040066) and diluted to 1×10^6 cells/ml in 1% BSA (Bovogen, #BSAS)/1×PBS (Ca+/Mg+) (Gibco, #14040-117). 1×10^5 cells/well (100 μL) were added to each well of a 96-well U-plate (Corning, #3799) and centrifuged at 1500 rpm (Eppendorf, #5810R) for 5 minutes before removing the supernatant. Antibodies serially diluted in 1% BSA/1×PBS (Ca+/Mg+) were added at 100 μL/well to the pelleted cells and incubated at 4° C. for 1 hour. A non-related hlgG1 antibody was used as an isotype control. Cells were washed two times with 180 μL/well of 1% BSA/1×PBS (Ca+/Mg+) by centrifugation at 1500 rpm for 5 minutes at 4° C. […] After the final wash, cells were resuspended in 100 μL 1% BSA/1×PBS (Ca+/Mg+) and fluorescence values were measured with a FACS Canto II cytometer (BD Biosciences). The amount of cell surface bound anti-P-Cadherin antibody was assessed by measuring the mean fluorescence (MFI). The FACS raw data were analyzed by FlowJo software, wells containing no antibody or secondary antibody only were used to establish background fluorescence.

MDA-MB-453 cells = test: Cytotoxicity assay of ADC (Cell Titer Glo) on MDA-MB-453; type: cell-based, human
[2] = target: T2, human P-cadherin expressing NCI-H1650 cells (Homo sapiens, UniProt P22223); test: Affinity to P-cadherin (FACS) on NCI-H1650 cells; type: binding
T2 construct: endogenous in cells; host or cells: NCI-H1650

Jurkat = test: Non-specific binding (FACS) on Jurkat; parameters: species or system human; conditions: 10 μg/mL
Experimental: (§1) Human cell lines were seeded in 96-well plates (BD) at a density of 1×10^5 cells/well. 10 μg/mL antibody samples were added to cells and incubated for 1 h at 4° C. After washing, the cells were resuspended and incubated with PE-conjugated goat anti-human IgG Fc antibody (Jackson) for 30 min. After washing and resuspending, mean fluorescence intensity (MFI) was measured by flow cytometry (BD Canto II) and analyzed by FlowJo.

SK-OV-3 = test: Non-specific binding (FACS) on SK-OV-3; parameters: species or system human; conditions: SK-OV-3, 10 μg/mL
Experimental: as §1

A375 = test: Non-specific binding (FACS) on A375; parameters: species or system human; conditions: A375, 10 μg/mL
Experimental: as §1

H1 Hela = test: Non-specific binding (FACS) on H1 Hela; parameters: species or system human; conditions: 10 μg/mL
Experimental: as §1

12 human cell lines = test: Non-specific binding (FACS), panel conclusion; conditions: 10 μg/mL
Experimental: as §1

HCC70 breast tumor = test: Xenografted HCC70 breast tumor model, Study II; type: in vivo, SCID-17B female mice; conditions: for TGI (%), Day 36: intravenous, vs Isotype control; for TGI (%), Day 36 / Tumor free, n/total: single dose; for Tumor free, n/total: Day 36
Experimental: Ti is the average tumor volume of a treatment group on a given day. TO is the average tumor volume of the treatment group on the first day of treatment. Vi is the average tumor volume of the vehicle control group on the same day with Ti and V0 is the average tumor volume of the vehicle group on the first day of treatment. Relative change of bodyweight change (RCBW) was calculated with the formula [(BWt−BW0)/BW0]×100%, BW0 is the average bodyweight at day0, BWt is the average bodyweight at a measurement day. […] Data at day 34 were analyzed using Ordinary one-way ANOVA Tukey's multiple comparisons test with Graphpad Prism 6.0 and p<0.05 was considered as statistically significant.
WBP3195-p1-ADC in efficacy study was tested in HCC70 breast tumor model in SCID-17B female mice. One hundred female SCID-17B mice (Beijing Vital River Lab Animal Technology Co. Ltd) of 37-38 weeks-old were used in the second study. HCC70 cells were maintained in vitro as a monolayer culture in RIPM1640 medium supplemented with 10% fetal bovine serum and 1% Penicillin-Sreptomycin at 37° C. in an atmosphere of 5% CO2 in air. The tumor cells were routinely sub-cultured twice a week with 0.25% trypsin-EDTA treatment. The cells growing in an exponential growth phase were harvested and counted for tumor inoculation. The harvested cells were re-suspended in PBS at a density of 1.0×10^8 cells/mL then added the equivalent matrigel (final 1.0×10^7 cells/200 μL/mouse) with viability >90% and subcutaneously implanted into the right front flank of animals.
When the average tumor volume reached approximately 242 mm^3 at day 10 post inoculation, animals were randomly grouped into 4 groups and each group contained 7 mice. […] The day of intravenous injection was considered as day 0. For all tumor studies, mice were weighed and tumor growth was measured twice a week using calipers.

HT-29 cells = test: Cytotoxicity assay of ADC (Cell Titer Glo) on HT-29
HCC-70 cells = test: Cytotoxicity assay of ADC (Cell Titer Glo) on HCC-70; conditions: HCC-70, 5 days

T2 sequence (P22223 108-829): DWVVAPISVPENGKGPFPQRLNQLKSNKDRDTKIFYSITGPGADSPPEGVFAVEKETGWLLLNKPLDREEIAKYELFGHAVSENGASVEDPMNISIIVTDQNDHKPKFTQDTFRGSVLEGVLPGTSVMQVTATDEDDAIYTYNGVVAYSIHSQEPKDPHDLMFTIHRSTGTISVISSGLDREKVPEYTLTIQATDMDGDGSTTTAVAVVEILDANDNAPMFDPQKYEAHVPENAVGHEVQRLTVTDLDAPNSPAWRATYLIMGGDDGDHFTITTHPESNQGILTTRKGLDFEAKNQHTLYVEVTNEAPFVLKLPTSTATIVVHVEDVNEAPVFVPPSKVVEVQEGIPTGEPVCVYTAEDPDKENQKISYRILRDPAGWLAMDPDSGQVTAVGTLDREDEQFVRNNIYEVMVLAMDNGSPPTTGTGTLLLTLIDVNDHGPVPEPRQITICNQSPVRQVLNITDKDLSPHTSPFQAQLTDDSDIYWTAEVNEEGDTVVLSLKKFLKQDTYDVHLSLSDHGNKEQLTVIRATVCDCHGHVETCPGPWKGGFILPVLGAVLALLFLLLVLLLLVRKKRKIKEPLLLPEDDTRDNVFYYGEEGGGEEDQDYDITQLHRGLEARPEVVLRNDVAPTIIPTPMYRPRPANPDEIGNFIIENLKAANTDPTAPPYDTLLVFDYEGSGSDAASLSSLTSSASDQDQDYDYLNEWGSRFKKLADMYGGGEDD
T1 sequence (P22223 108-829): as above

B1: W3195-1.53.1-p1-uIgG1L-MMAE (conjugate)
heavy: QVQLQESGPGLVKPSETLSLTCTVSGGSVISDNYYWTWVRQPPGKGLEFIGYIYYRGSTNYNPSLKNRVIISIDTSRNQFSLDLNSVTAADTAVYYCARDRRTGNSLPFDNWGQGTLVTVSSASTKGPSVFPLAPSSKSTSGGTAALGCLVKDYFPEPVTVSWNSGALTSGVHTFPAVLQSSGLYSLSSVVTVPSSSLGTQTYICNVNHKPSNTKVDKRV[human IgG1 Fc not written out]
light: SYELTQPPSVSVSPGQTAQITCSGDKLGDKFASWYQQKSGQSPVVVIYQDNKRPSGFPERFSGSNSGNTATLTISGTQAMDEADYYCQAWDSSIVVFGGGTKLTVLGQPKAAPSVTLFPPSSEELQANKATLVCLISDFYPGAVTVAWKADSSPVKAGVETTTPSKQSNNKYAASSYLSLTPEQWKSHRSYSCQVTHEGSTVEKTVAPTECS
Max MFI, FACS binding [1]: 6164
IC50 (MDA-MB-453 cells; MDA-MB-453 (P-cadherin low expressing), 5 days, read-out: IC50 (nM), ADC toxicity): > 10 nM
Max Inh % (MDA-MB-453 cells; MDA-MB-453, 5 days): 4.0%
Bmax (M), FACS affinity [2]: 1.88e-10 M
MFI, non-specific binding (Jurkat): 63.5
MFI, non-specific binding (SK-OV-3): 30.6
MFI, non-specific binding (A375): 20.3
MFI, non-specific binding (H1 Hela): 27
non-specific binding to human cell lines (in words) (12 human cell lines): no non-specific binding effect
TGI (%), Day 36 (HCC70 breast tumor; 0.5 mg/kg): 62.06%
Tumor free, n/total (HCC70 breast tumor; 0.5 mg/kg): 0/6
tumor free animals observed (HCC70 breast tumor; 2.5 mg/kg, day36 post treatment): 5
TGI (%), Day 36 (HCC70 breast tumor; 2.5 mg/kg): 122.67%
Tumor free, n/total (HCC70 breast tumor; 2.5 mg/kg): 5/6
Max Inh % (HT-29 cells; HT-29, 5 days): −4.1%
IC50 (HT-29 cells; read-out: IC50 (nM), ADC cytotoxicity, HT-29 (P-cadherin low expressing), 5 days): > 10 nM
Max Inh % (HCC-70 cells): 90.7%
